Data reported in the supplement of paper PMC11876631.
± gives the standard deviation of the averaged measurements. Laboratory Escherichia coli strains with one amino-acid change in an essential protein, pooled on minimal glucose agar with carbenicillin or gentamicin at twice the control MIC (plus kanamycin and chloramphenicol for the plasmids), 48 h. Fold change of barcode share against drug-free plates; higher = less susceptible. Active = above 20 in both replicates (the paper's putatively resistant). '<' = one read or none on drug, '>' = one read or none on a drug-free plate. Shares are relative, so most strains fall below 1 when a few take over. Listed are strains with at least 15 reads on both drug-free plates, and hits; most hits rest on fewer reference reads. Replicate rank correlation about 0.5. Edits are read from barcodes.

B1: dapB I153P (protein)
chain: MHDANIRVAIAGAGGRMGRQLIQAALALEGVQLGAALEREGSSLLGSDAGELAGAGKTGVTVQSSLDAVKDDFDVFIDFTRPEGTLNHLAFCRQHGKGMVIGTTGFDEAGKQAIRDAAADIAIVFAANFSVGVNVMLKLLEKAAKVMGDYTDPEIIEAHHRHKVDAPSGTALAMGEAIAHALDKDLKDCAVYSREGHTGERVPGTIGFATVRAGDIVGEHTAMFADIGERLEITHKASSRMTFANGAVRSALWLSGKESGLFDMRDVLDLNNL
B2: dapB V248A (protein)
chain: MHDANIRVAIAGAGGRMGRQLIQAALALEGVQLGAALEREGSSLLGSDAGELAGAGKTGVTVQSSLDAVKDDFDVFIDFTRPEGTLNHLAFCRQHGKGMVIGTTGFDEAGKQAIRDAAADIAIVFAANFSVGVNVMLKLLEKAAKVMGDYTDIEIIEAHHRHKVDAPSGTALAMGEAIAHALDKDLKDCAVYSREGHTGERVPGTIGFATVRAGDIVGEHTAMFADIGERLEITHKASSRMTFANGAARSALWLSGKESGLFDMRDVLDLNNL
B3: dapB V248Q (protein)
chain: MHDANIRVAIAGAGGRMGRQLIQAALALEGVQLGAALEREGSSLLGSDAGELAGAGKTGVTVQSSLDAVKDDFDVFIDFTRPEGTLNHLAFCRQHGKGMVIGTTGFDEAGKQAIRDAAADIAIVFAANFSVGVNVMLKLLEKAAKVMGDYTDIEIIEAHHRHKVDAPSGTALAMGEAIAHALDKDLKDCAVYSREGHTGERVPGTIGFATVRAGDIVGEHTAMFADIGERLEITHKASSRMTFANGAQRSALWLSGKESGLFDMRDVLDLNNL
B4: dapD I184Q (protein)
chain: MQQLQNIIETAFERRAEITPANADTVTREAVNQVIALLDSGALRVAEKIDGQWVTHQWLKKAVLLSFRINDNQVIEGAESRYFDKVPMKFADYDEARFQKEGFRVVPPAAVRQGAFIARNTVLMPSYVNIGAYVDEGTMVDTWATVGSCAQIGKNVHLSGGVGIGGVLEPLQANPTIIEDNCFQGARSEVVEGVIVEEGSVISMGVYIGQSTRIYDRETGEIHYGRVPAGSVVVSGNLPSKDGKYSLYCAVIVKKVDAKTRGKVGINELLRTID
B5: dapD V233A (protein)
chain: MQQLQNIIETAFERRAEITPANADTVTREAVNQVIALLDSGALRVAEKIDGQWVTHQWLKKAVLLSFRINDNQVIEGAESRYFDKVPMKFADYDEARFQKEGFRVVPPAAVRQGAFIARNTVLMPSYVNIGAYVDEGTMVDTWATVGSCAQIGKNVHLSGGVGIGGVLEPLQANPTIIEDNCFIGARSEVVEGVIVEEGSVISMGVYIGQSTRIYDRETGEIHYGRVPAGSVAVSGNLPSKDGKYSLYCAVIVKKVDAKTRGKVGINELLRTID
B6: dapD V45A (protein)
chain: MQQLQNIIETAFERRAEITPANADTVTREAVNQVIALLDSGALRAAEKIDGQWVTHQWLKKAVLLSFRINDNQVIEGAESRYFDKVPMKFADYDEARFQKEGFRVVPPAAVRQGAFIARNTVLMPSYVNIGAYVDEGTMVDTWATVGSCAQIGKNVHLSGGVGIGGVLEPLQANPTIIEDNCFIGARSEVVEGVIVEEGSVISMGVYIGQSTRIYDRETGEIHYGRVPAGSVVVSGNLPSKDGKYSLYCAVIVKKVDAKTRGKVGINELLRTID
B7: dapD V45Q (protein)
chain: MQQLQNIIETAFERRAEITPANADTVTREAVNQVIALLDSGALRQAEKIDGQWVTHQWLKKAVLLSFRINDNQVIEGAESRYFDKVPMKFADYDEARFQKEGFRVVPPAAVRQGAFIARNTVLMPSYVNIGAYVDEGTMVDTWATVGSCAQIGKNVHLSGGVGIGGVLEPLQANPTIIEDNCFIGARSEVVEGVIVEEGSVISMGVYIGQSTRIYDRETGEIHYGRVPAGSVVVSGNLPSKDGKYSLYCAVIVKKVDAKTRGKVGINELLRTID
B8: dapD V45P (protein)
chain: MQQLQNIIETAFERRAEITPANADTVTREAVNQVIALLDSGALRPAEKIDGQWVTHQWLKKAVLLSFRINDNQVIEGAESRYFDKVPMKFADYDEARFQKEGFRVVPPAAVRQGAFIARNTVLMPSYVNIGAYVDEGTMVDTWATVGSCAQIGKNVHLSGGVGIGGVLEPLQANPTIIEDNCFIGARSEVVEGVIVEEGSVISMGVYIGQSTRIYDRETGEIHYGRVPAGSVVVSGNLPSKDGKYSLYCAVIVKKVDAKTRGKVGINELLRTID

Molecular target: Escherichia coli (laboratory strain)
Test: barcode share on antibiotic plates over drug-free plates; higher = less susceptible
Protocol: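 A pool of E. coli strains, each edited to carry one amino-acid change in an essential protein, was grown for 48 h on minimal glucose agar with or without antibiotic; strain barcodes were sequenced; mean of two replicates.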

[1] = antibiotic: carbenicillin, 2× MIC (3.1 µg/mL)
[2] = antibiotic: gentamicin, 2× MIC (MIC 0.45 µg/mL)

Row | Protein | fold change of barcode share [1] | fold change of barcode share [2]
1 | B1 | 0.617 ± 0.47 | 0.00548 ± 0.0022
2 | B2 | 0.315 ± 0.11 | < 0.00351
3 | B3 | 0.325 ± 0.042 | 0.00994 ± 0.011
4 | B4 | 0.253 ± 0.02 | < 0.016
5 | B5 | 0.508 ± 0.095 | –
6 | B6 | 0.367 ± 0.054 | 0.0228 ± 0.028
7 | B7 | 10.1 ± 3.8 | –
8 | B8 | 1.75 ± 0.29 | 0.0257 ± 0.023
